Molecules are shown by their SMILES. About 7,500 (2.1%) of roughly 360,000 compounds were called active. Not shown: some 20% with an inconclusive outcome. The call rests on the fitted dose curve; in most records, active means well fitted inhibition curve with a large enough effect; inconclusive means small, poorly fitted or top-dose-only effect, or effect the other way; inactive means flat fitted curve, though single readings scatter. This is a selection; strong and weak results do not stand in their true shares.
On the % scale 0 is the no-effect control and ±100 the full control effect; potency means the concentration at half of the fitted maximal effect.

The test can be described thus: Nrf2 qHTS screen for inhibitors. Further: nearly all actives have a fitted effect of over 60% in size. As to conditions: A549 ARE-Fluc reporter, luciferase luminescence, 18-24 h; series mostly up to 46 µM; activity change, negative = inhibition: at the top concentration. The source says: NIH Molecular Libraries Probe Production Network [MLPCN]
NIH Chemical Genomics Center [NCGC]
Assay Provider: Shyam Biswal, Johns Hopkins University
Nrf2 is a transcription factor that maintains cellular redox homoestasis and protects cells from xenobiotics. Nrf2 binds to the antioxidant response element (ARE) to induce gene expression of a broad spectrum of genes that encode for antioxidants. […] Finding a small molecule that act as an inhibitor of Nrf2 function would represent a novel therapeutic target that could lead to improvement in survival of patients undergoing chemo- and/or radio- therapy.
This is the Nrf2 activity measured in the luminescent read.
1. Shibata, T., et al., Genetic Alteration of Keap1 Confers Constitutive Nrf2 Activation and Resistance to Chemotherapy in Gallbladder Cancer. Gastroenterology, 2008.
2. Sjoblom, T., et al., The consensus coding sequences of human breast and colorectal cancers. Science, 2006. 314(5797): p. 268-74.
NCGC Assay Protocol Summary:
A concentration-response assay was performed with A549 ARE_Fluc cells which are suspended in 5% FBS OPTI-MEM. Five uL were dispensed into 1536-well white TC-treated plate using the Kalypsys dispenser to achieve a density of 5000 cells/well in all columns except column 1. The plate is incubated at 37deg C at 5% CO2 for 2 hours before 23 nL of compounds are added with the Kalypsys pin tool equipped with a 1,536-pin array containing 10-nL slotted pins (FP1S10, 0.457-mm diameter, 50.8 mm long; V&P Scientific). The control compounds Budesonide and Staurosporine are both added at a concentration of 2mM and Budesonide is also added as a 1:10 titration, starting at 200uM, to achieve dose-response. After an 18-24 hour incubation at 37deg C at 5% CO2, 5ul of medium is added to column 1. Afterwards 1ul of 5x of CellTiter-Fluor (Promega) is added to every well. The plate is then incubated at 37deg C at 5% CO2 for 30 minutes before they are read on the ViewLux (Perkin Elmer) for a fluorescent read Ex=405(10)/Em=525(10) for a 3 second exposure, 2x binning, and high gain. Then 3 uL of 3x BugLite is dispensed into all wells and the plate is incubated at ambient room temperature for 15 minutes. Afterwards another ViewLux read is performed using the clear filter to get a luminescent read with the settings of 40 second exposure, 2x binning, and high gain. Cytotoxicity is assessed through the first fluorescent read and then biochemical activity against Nrf2 is measured in the luminescent read.
On the technique in general: Quantitative high-throughput screening tests each substance at several concentrations.
Regarding `CC1=CC(C)(C)NC(=S)N1c1ccccc1C`, the “activity change, negative = inhibition” value is inactive: -1.61%.
`COc1ccc(NC(=O)N(C)C[C@H]2Oc3c(NS(=O)(=O)c4cccs4)cccc3C(=O)N([C@@H](C)CO)C[C@@H]2C)cc1`: the “activity change, negative = inhibition” value is inactive: 20%.
`COCCNC(=O)CCc1c(C)nc2c(c(C)nn2-c2ccc(C)cc2)c1C`: the “activity change, negative = inhibition” value is inactive: -17.5%.
For the molecule `C[C@@H]1CCC[C@]2(O[C@@H](CCO)C[C@@H](O)[C@@H]2O)O1`, the “activity change, negative = inhibition” value was inactive: 18.4%.
With `CC(C)(C)OC(=O)C[C@@H]1C/C=C\C[C@H](CC(=O)N[C@H](CO)Cc2ccccc2)C(=O)N[C@@H](Cc2ccccc2)COC1=O`, the “activity change, negative = inhibition” value was inactive: 0.116%.
On the same count and under the same terms, in the case of `Cc1cc(NC(=O)CCCN2C(=O)/C(=C\c3cccs3)SC2=S)no1` it was inactive: 21%; in that of `CCCCN(CCCC)CCNC(=O)c1cn(C)c2ccc(S(=O)(=O)N3CCCC3)cc2c1=O`, inactive: -17.9%.
Same read-out and setting: the same measure for `COc1cc(C(CCN2CCN(c3ccccc3)CC2)c2c(OC)cc(OC)c3c(C)cc(=O)oc23)cc(OC)c1OC` (configuration not stated): inactive: -13.3%; for `COc1ccc(C2=NS(=O)(=O)N(C)C(C(=O)N(C)Cc3ccccc3)=C2)cc1OC`: inactive: 18.5%.
`C=C1CCN(C(C(=O)OC)C(C)C)S(=O)(=O)c2ccc(F)cc21` (configuration not stated): the “activity change, negative = inhibition” value was inactive: -0.502%.
`CC(C)(C)OC(=O)N1CCC(c2c(C(=O)N3CCN(C(=O)c4ccco4)CC3)cnn2-c2cccc(Cl)c2)CC1`: the “activity change, negative = inhibition” value is inactive: 9.42%.
Same read-out and setting: in the case of `COC(=O)[C@@]12CCCCN1[C@H](c1ccc(-c3cccc(Cl)c3)cc1)[C@@H]1C(=O)N(C)C(=O)[C@@H]12` it was inactive: -19.3%.
Turning to `Cc1cc(C(=O)N2CCN(c3cccc(Cl)c3)CC2)c2c(C)nn(-c3ccccc3Cl)c2n1`, the Potency was active: 18.4 µM.
On to `O=S(=O)(c1ccc2ccccc2c1)N1CCN(S(=O)(=O)c2c(F)cccc2F)CC1`, for which the “activity change, negative = inhibition” value was inactive: -4.78%.
Take `O=C(CN1CCN(Cc2ccccc2)CC1)N/N=C/C=C/c1ccco1`: the “activity change, negative = inhibition” value is inactive: 9.74%.
Still for that read-out and setting: the same measure for `COc1ccc(OC)c(-c2nnc3n2N=C(c2ccc(OC)c(OC)c2)CS3)c1`: inactive: -14.8%.
In the case of `Cc1nn(-c2ccccc2)nc1C(=O)c1c(C)[nH]n(-c2ccccc2)c1=O`, the Potency is active: 20.6 µM.
Turning to `COc1cccc(CNc2nc(Cl)nc3nc[nH]c23)c1`, the “activity change, negative = inhibition” value is inactive: -19.8%.
Consider `O=C(CCCn1ncn2c(cc3occc32)c1=O)NCc1ccccc1F`, for which the “activity change, negative = inhibition” value is inactive: -7.28%.
With `CC[C@]12c3[nH]c4ccc(Cl)cc4c3CCN1C(=O)[C@@H](CC(=O)NCC13CC4CC(CC(C4)C1)C3)C[C@@H]2C(=O)N1CCN(C(=O)C2CC2)CC1`, the Potency is active: 23.1 µM.
Consider `CCOc1ccccc1C(=O)NCC(=O)N1CCN(Cc2ccc3c(c2)OCO3)CC1`, for which the Potency was active: 4.61 µM.
In the case of `COc1ccc(OC)c(CNC(=O)CCC(=O)N2Cc3ccccc3Oc3ncccc32)c1`, the “activity change, negative = inhibition” value was inactive: -7.33%.
For `CCCOc1ccc(CNC(=O)Cn2c(=O)oc3ccccc32)cc1`, the “activity change, negative = inhibition” value is inactive: 6.72%.
For `CCC(O)C1CCN(C(=O)c2cc(COc3ccc4ncccc4c3)on2)CC1` (configuration not stated), the Potency is active: 1.84 µM.
On to `C[C@H](NC(=O)[C@@H]1Cc2ccccc2CN1)C(=O)NC1CCCC1`, for which the “activity change, negative = inhibition” value is inactive: 2.83%.
As for `CCOC(=O)Nc1ccc2c(CNC(C)c3ccccc3OC)cc(=O)oc2c1` (configuration not stated), the Potency was active: 13 µM.
With `CC(C)c1ccc(NC(=O)CNC(=O)Cn2ccc3ccccc3c2=O)cc1`, the activity change, negative = inhibition was inactive: -12.3% [at 9.27 µM].
For the molecule `CC(=O)N1CCc2cc(S(=O)(=O)CCC(=O)N3CCN(c4cc(C)ccc4C)CC3)ccc21`, the Potency is active: 14.6 µM.
As to `Cc1onc(-c2c(Cl)cccc2Cl)c1C(=O)NC1C(=O)N2C1SC(C)(C)C2C(=O)O` (configuration not stated), the “activity change, negative = inhibition” value is inactive: -1.12%.
On to `CC1CCN(S(=O)(=O)c2ccc3nc(N4CCN(c5ccccc5)CC4)ccc3c2)CC1`, for which the “activity change, negative = inhibition” value was inactive: 7.12%.
For the molecule `Cc1ccc(S(=O)(=O)N2CCN(CC(=O)NC3CCCc4ccccc43)CC2)cc1C` (configuration not stated), the “activity change, negative = inhibition” value was inactive: -16.6%.
Turning to `COc1cc2c(cc1OC)[C@@H]1Cc3ccc(OC)c(OC)c3CN1CC2`, the “activity change, negative = inhibition” value is inactive: 0.684%.
Regarding `Cc1c(C(=O)Nc2ccccc2F)sc2nc3n(c(=O)c12)CCC3`, the “activity change, negative = inhibition” value is inactive: -10.5%.
As to `Cc1ccc(Cn2ncc3c(N4CCN(c5ccccc5C)CC4)ncnc32)cc1`, the Potency is active: 20.6 µM.
In the case of `CCN(Cc1ccccc1)C(=O)Cn1c(=O)cc(C)c2c(C)nn(-c3cccc(F)c3)c21`, the Potency was active: 20.6 µM.
For the molecule `CCOC(=O)C(=Cc1ccc(Br)cc1)C(=O)OCC`, the Potency was active: 18.4 µM.
For the molecule `Cc1ccc(C)c(NC(=O)CCn2cnnn2)c1`, the “activity change, negative = inhibition” value was inactive: 8.2%.
In the case of `C/C=C(\C)C(=O)OC1CC(C)(C)C[C@H]2C3=CC[C@@H]4[C@@]5(C)CCC(O[C@@H]6O[C@@H](C(=O)O)[C@@H](O)C(O[C@@H]7OC[C@H](O)[C@@H](O)[C@@H]7O[C@@H]7OC(CO)C(O)[C@@H](O)[C@@H]7O)C6O[C@@H]6OC(CO)C(O)C(O)C6O)[C@@](C)(CO)[C@@H]5CC[C@]4(C)[C@]3(C)CC(O)[C@@]12CO` (some centres not stated), the “activity change, negative = inhibition” value was inactive: -5.38%.
Take `Cc1cc2c(cc1S(=O)(=O)CCC(=O)NCc1ccccc1)OCC(=O)N2`: the “activity change, negative = inhibition” value was inactive: -29.3%.
With `COC(=O)c1cc(C)nc2c1C(=O)C(=O)C=C2N1CCOCC1`, the Potency was active: 16.4 µM.
Turning to `CC(=O)c1cccc(S(=O)(=O)N2CCN(c3ccccc3F)CC2)c1`, the “activity change, negative = inhibition” value was inactive: 0.153%.
As to `C=CCn1c(=O)/c(=C/c2ccc(Cl)cc2)s/c1=C(\C#N)c1nnc2n1CCCCC2`, the “activity change, negative = inhibition” value was inactive: 0.501%.
